Assay results taken from the supplement of paper PMC10369915.
The list shows a part of the results. No stated cut-off is given here; in the data, active = 3.2 or more and inactive = the rest. Most of these values are background signal.

B1: PANK2_Y400_YF (peptide)
chain: SILAVYSKDNF
B2: PCCA_Y143 (peptide)
chain: AVHPGYGFLSE
B3: PAH_Y166_H170D_YF (peptide)
chain: FADIAYNFRDG
B4: OR8H2_Y123_H120Y_YF (peptide)
chain: MAFDRYAAICS
B5: PABPC5_Y149_G146A_YF (peptide)
chain: SKAFAYVHFDS
B6: PANK2_Y405 (peptide)
chain: YSKDNYKRVTG
B7: OTC_Y345_Y345D (peptide)
chain: SLLTDDSPQLQ
B8: PC_Y304_Y304C (peptide)
chain: AKQVGCENAGT
B9: PAX5_Y179 (peptide)
chain: SAGSSYSISGI
B10: P2RX7_Y291 (peptide)
chain: SLYPGYNFRYA
B11: OSMR_Y689_I691T (peptide)
chain: SECCKYKTDNP
B12: PARP4_Y214_F215Y_YF (peptide)
chain: EDASEYFENFI
B13: PATJ_Y783 (peptide)
chain: EEESCYILHSS
B14: PAX5_Y299_I301T (peptide)
chain: PGPQSYPTVTG
B15: PADI3_Y51 (peptide)
chain: PGVDIYISPNM
B16: PAH_Y166_N167I (peptide)
chain: FADIAYIYRHG
B17: PAX2_Y73_G76S_YF (peptide)
chain: ILGRFYETSSI
B18: PC_Y304 (peptide)
chain: AKQVGYENAGT
B19: PAH_Y166_I164T (peptide)
chain: FADTAYNYRHG

Molecular target: SHP2 C-SH2 domain E139D
Test: enrichment score (SH2-bound / input frequency) (ratio); bacterial display of known human phosphotyrosine sites (pTyr-Var adds point mutants) read by sequencing; higher = stronger binding; tyrosines were phosphorylated by kinases first
Details: peptide library: pTyr-Var
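Further: displayed peptides selected on beads carrying the immobilized SH2 domain, with library peptides lacking any tyrosine serving as negative controls.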

Binder | enrichment score
B1 | inactive: 1.2
B2 | inactive: 0.762
B3 | inactive: 0.998
B4 | inactive: 0.847
B5 | inactive: 2.19
B6 | inactive: 0.43
B7 | inactive: 0.751
B8 | inactive: 0.609
B9 | inactive: 0.837
B10 | inactive: 0.92
B11 | inactive: 0.804
B12 | inactive: 0.719
B13 | inactive: 0.936
B14 | inactive: 0.885
B15 | inactive: 1.1
B16 | inactive: 1.52
B17 | inactive: 1.52
B18 | inactive: 0.613
B19 | inactive: 0.868

Molecular target: SHP2 C-SH2 domain wild-type
Test: as above
Details: peptide library: pTyr-Var

Binder | enrichment score
B1 | inactive: 1.2
B2 | inactive: 0.83
B3 | inactive: 0.655
B4 | inactive: 1.02
B5 | inactive: 1.94
B6 | inactive: 0.554
B7 | inactive: 0.962
B8 | inactive: 0.533
B9 | inactive: 0.775
B10 | inactive: 0.715
B11 | inactive: 0.757
B12 | inactive: 0.717
B13 | inactive: 0.929
B14 | inactive: 0.575
B15 | inactive: 0.71
B16 | inactive: 1.41
B17 | inactive: 1.32
B18 | inactive: 0.508
B19 | inactive: 0.731

Molecular target: SHP2 N-SH2 domain L43F
Test: as above
Details: peptide library: pTyr-Var

Binder | enrichment score
B1 | inactive: 1.48
B2 | inactive: 0.872
B3 | inactive: 0.787
B4 | inactive: 0.82
B5 | inactive: 1.87
B6 | inactive: 0.42
B7 | inactive: 0.613
B8 | inactive: 0.477
B9 | inactive: 0.739
B10 | inactive: 0.775
B11 | inactive: 0.738
B12 | inactive: 0.859
B13 | inactive: 0.872
B14 | inactive: 0.822
B15 | inactive: 0.986
B16 | inactive: 1.35
B17 | active: 3.26
B18 | inactive: 0.561
B19 | inactive: 0.916

Molecular target: SHP2 N-SH2 domain T42A
Test: as above
Details: peptide library: pTyr-Var

Binder | enrichment score
B1 | inactive: 0.906
B2 | inactive: 0.817
B3 | inactive: 0.727
B4 | inactive: 0.855
B5 | inactive: 1.8
B6 | inactive: 0.433
B7 | inactive: 0.698
B8 | inactive: 0.461
B9 | inactive: 0.829
B10 | inactive: 0.929
B11 | inactive: 0.551
B12 | inactive: 0.664
B13 | inactive: 0.697
B14 | inactive: 0.646
B15 | inactive: 0.716
B16 | inactive: 1.14
B17 | inactive: 1.45
B18 | inactive: 0.537
B19 | inactive: 0.636

Molecular target: SHP2 N-SH2 domain T52S
Test: as above
Details: peptide library: pTyr-Var

Binder | enrichment score
B1 | inactive: 1.49
B2 | inactive: 1.03
B3 | inactive: 0.686
B4 | inactive: 0.731
B5 | inactive: 2.9
B6 | inactive: 0.487
B7 | inactive: 0.804
B8 | inactive: 0.602
B9 | inactive: 0.844
B10 | inactive: 0.743
B11 | inactive: 0.893
B12 | inactive: 0.837
B13 | inactive: 0.954
B14 | inactive: 0.686
B15 | inactive: 0.982
B16 | inactive: 1.34
B17 | inactive: 3.12
B18 | inactive: 0.482
B19 | inactive: 0.962

Molecular target: SHP2 N-SH2 domain wild-type
Test: as above
Details: peptide library: pTyr-Var

Binder | enrichment score
B1 | inactive: 1.02
B2 | inactive: 0.909
B3 | inactive: 0.842
B4 | inactive: 1.1
B5 | inactive: 1.74
B6 | inactive: 0.613
B7 | inactive: 0.976
B8 | inactive: 0.701
B9 | inactive: 0.787
B10 | inactive: 0.762
B11 | inactive: 0.978
B12 | inactive: 0.753
B13 | inactive: 1.1
B14 | inactive: 0.894
B15 | inactive: 0.788
B16 | inactive: 1.54
B17 | inactive: 1.28
B18 | inactive: 0.718
B19 | inactive: 1.21
